# Measurements as given in PubChem BioAssay AID651820 (National Center for Advancing Translational Sciences (NCATS), 2012).
# The whole screen tested about 340,000 compounds, of which about 12,000 (3.5%) were called active. This list was built around the results that the source calls inconclusive (neither active nor inactive); the mix of calls is not that of the screen. Calls come from the whole dose curve; as a rule, active = well fitted inhibition curve with a large enough effect; inconclusive = small, poorly fitted or top-dose-only effect, or another doubt; inactive = no such curve, though single readings can be large or run the other way. No potency is given beside an inconclusive call; the fits are too rough.
# Assay: qHTS Assay for Inhibitors of Hepatitis C Virus (HCV)
# Conditions: Huh7.5.1 HCVcc-Cre (HCVcc is cell-culture hepatitis C virus) infection, luciferase reporter, 44 h; activity change, negative = inhibition: at 41.8 µM (top of the series)
# Outline: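 After 44 h co-culture of compound, cells and HCVcc-Cre (~0.5 moi), substrate is added for 15 min at room temperature and luciferase measured over 15 sec. Cells were seeded at 1,000/well and pre-cultured 4 h.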
# % is set by controls: 0 for no effect and ±100 for the full control effect; potency is the fitted concentration of half-maximal effect; tags give direction and shape of the fitted curve.
Structure (SMILES),Potency,"activity change, negative = inhibition"
O=S(=O)(Cc1ccc(Cl)cc1Cl)c1ccc(Cl)cc1,"inconclusive [inhibitor, single point]",
CC(=O)Nc1nc2c(ccc3ccccc32)s1,"inconclusive [inhibitor, single point]",
Cc1cc(Nc2ccc3c(c2)OCCO3)c2cccc(C)c2n1,"inconclusive [inhibitor, single point]",
N=c1c(S(=O)(=O)c2ccc(Cl)cc2)cc2c(=O)n3ccccc3nc2n1C1CCCC1,"inconclusive [inhibitor, full curve, poor fit]",
COc1ccc(Br)cc1C(=O)Nc1ccc(Cc2ccncc2)cc1,"inconclusive [inhibitor, partial curve]",
CC(C)Cn1cc(C(=O)NCC2CCCO2)c2c3ccccc3n(C)c2c1=O (stereo not drawn),,inactive: -13.5%
Cc1ccc2nc(/N=C(\N)NC(=O)NC3CCCCC3)nc(C)c2c1,active: 11.2 µM,
Cc1ccc(-c2cc(-c3cccs3)[nH]n2)c(O)c1,,inactive: -27.1%
Cc1c(C(=O)OCC(C)C)[nH]c2c1C(=O)CC(c1cccs1)C2 (stereo not drawn),"inconclusive [inhibitor, full curve]",
CC1=C(C(=O)N2CCOCC2)C(c2cc(C)cs2)NC(=O)N1 (stereo not drawn),"inconclusive [inhibitor, single point]",
CC1=C(C(=O)Nc2cccc(C(=O)NC3CCCC(C)C3C)c2)SCCO1 (stereo not drawn),active: 12.6 µM,
CCCCNC(=O)COn1nnc2ccc(S(=O)(=O)N3CCOCC3)cc21,,inactive: -4.62%
O=C(/C=C/Sc1ccc(C(F)(F)F)cn1)c1ccccc1,active: 10 µM,
CN(C(=O)/C=C/c1ccc(F)cc1)C1CCCCC1,,inactive: -13.3%
CC(C)N(Cc1nc(-c2ccc(Cl)cc2)no1)C(=O)c1cccs1,"inconclusive [inhibitor, partial curve]",
CCn1c(SCC(=O)c2cc(C)ccc2C)nc2cc(S(=O)(=O)N3CCOCC3)ccc21,"inconclusive [inhibitor, single point]",
CN1CCc2c(sc(NC(=O)C3CCN(S(=O)(=O)c4cccs4)CC3)c2C(N)=O)C1,,inactive: -1.18%
CC1(C)CC(=O)CC2(C1)NCC(c1ccccc1Cl)c1c2[nH]c2ccccc12 (stereo not drawn),"inconclusive [inhibitor, partial curve]",
COC(=O)C1=C(c2ccc(-c3ccccc3)c(F)c2)C[C@@H]2CC[C@H]1N2C(=O)NCc1ccco1,"inconclusive [inhibitor, partial curve]",
Cc1ccnc(NC(=O)CCC(=O)N(CC(=O)NCCc2ccccc2)c2ccc(F)cc2)c1,,inactive: -8.29%
CNC(=S)N1CCN(c2nc(-c3cccc(OC)c3)cs2)CC1,"inconclusive [inhibitor, single point]",
CN(Cc1ccccc1)C(=O)COC(=O)C1CCN(S(=O)(=O)c2ccc(Cl)c(C(F)(F)F)c2)CC1,,inactive: -1.58% [at 8.37 µM]
NC(=O)NC(Cc1ccccc1)C(=O)NNC(=O)COc1ccccc1Cl (stereo not drawn),,inactive: 15.4%
CCCCc1ccc(NC(=O)C2CCN(S(C)(=O)=O)CC2)cc1,"inconclusive [inhibitor, partial curve]",
CC(C)Oc1ccc(CN2CCCC(CO)(Cc3ccc(F)cc3)C2)cc1 (stereo not drawn),"inconclusive [inhibitor, single point]",

Structure (SMILES),Potency,"activity change, negative = inhibition"
O=C(Nc1nnc(Cc2ccccc2F)s1)c1ccccc1Cl,,inactive: 6.79%
O=C(CSc1nc2ccccc2o1)N1c2ccccc2Sc2ccc(C(F)(F)F)cc21,"inconclusive [inhibitor, partial curve]",
CC(C)(Cc1ccccc1)/[N+]([O-])=C\c1ccccc1,,inactive: -0.707%
O=C(c1ccc(S(=O)(=O)Cc2ccccc2F)c([N+](=O)[O-])c1)N1CCCC1,,inactive: 3.67%
Cc1ccc(C(=O)CSc2cc(C)nc(SCC(=O)c3ccccc3)n2)cc1,"inconclusive [inhibitor, partial curve]",
Cc1cc(C(=O)CSc2nc(N)cc(N)n2)c(C)n1-c1cccc(C(F)(F)F)c1,"inconclusive [inhibitor, partial curve]",
CCc1ccc(C(=O)C23CN4CN(CN(C4)C2)C3)cc1,"inconclusive [inhibitor, partial curve]",
COc1ccc(C2CC3(CC(C)(C)NC(SC)=N3)Oc3cc(O)cc(C)c32)cc1 (stereo not drawn),active: 12.6 µM,
CC(=O)c1ccc(NC(=O)C2(c3ccccc3)CC2(Cl)Cl)cc1 (stereo not drawn),,inactive: 12.3%
CCOC(=O)CC1C(=O)NCCN1C(=O)c1cccc(OC)c1 (stereo not drawn),,inactive: 6.85%
O=C(O)c1cccc(N2C(=O)C3CC=CCC3C2=O)c1 (stereo not drawn),,inactive: 8.72%
CCN1CCN(S(=O)(=O)c2ccc(Cl)c(C(=O)Nc3cc(Cl)ccc3N3CCOCC3)c2)CC1,"inconclusive [inhibitor, single point]",
O=C(O)C1CCCCN1C(=O)c1ccc(S(=O)(=O)N2CCCCCC2)cc1 (stereo not drawn),,inactive: 13.6%
Nc1nc(CN2CCN(c3cccc(Cl)c3)CC2)nc(N2CCCc3ccccc32)n1,,inactive: 6.28%
COc1ccc(-c2csc3ncnc(N4CCN(c5ccccc5)CC4)c23)cc1,"inconclusive [inhibitor, single point]",
Clc1ccccc1-c1ccc(/C=N/Nc2nncc(-c3ccccc3)n2)o1,,inactive: -20.9%
CCc1noc(C)c1C(=O)Nc1nc(-c2ccc(OC)cc2)cs1,"inconclusive [inhibitor, partial curve]",
OC(COc1ccc(OCc2ccccc2)cc1)CN1CCOCC1 (stereo not drawn),,inactive: 8.52%
N#CCC(CNc1ncc(C(F)(F)F)cc1Cl)OC(=O)c1cccc([N+](=O)[O-])c1 (stereo not drawn),,inactive: -10.1%
CCC(C)(C)c1ccc(OCCCC[n+]2ccccc2)c(C(C)(C)CC)c1,"inconclusive [inhibitor, single point]",
COc1cc2nc(/C=C/c3ccc(N(C)C)cc3)sc2cc1SC,"inconclusive [inhibitor, partial curve]",
COc1ccc2cc1Oc1ccc(cc1)CC1c3c(cc(OC)c4c3Oc3cc5c(cc3O4)CCNC5C2)CCN1C (stereo not drawn),"inconclusive [inhibitor, single point]",
CCOC(=O)CSc1nnc(-c2ccco2)n1C,,inactive: -6.89%
CC1(C)C(=O)N(CCN2CCC(C(=O)c3ccc(F)cc3)CC2)c2ccccc21,"inconclusive [inhibitor, partial curve]",
CCN(Cc1ccccc1)S(=O)(=O)c1ccc(C(=O)N(CCCN(C)C)c2nc3ccc(F)cc3s2)cc1,"inconclusive [inhibitor, single point]",

Structure (SMILES),Potency,"activity change, negative = inhibition"
COc1cc2cccc(OC)c(=O)c2c(O)c1OC,,inactive: 4.99%
COC(=O)c1ccc(Cn2c(O)c(N=NC(N)=S)c3ccccc32)o1,"inconclusive [inhibitor, partial curve]",
NC(=O)c1sc2nc(-c3cccs3)ccc2c1N,"inconclusive [inhibitor, single point]",
CCCCCC(=O)Nc1ccc(Cc2ccncc2)cc1,,inactive: -4.24%
CCc1ccc(NC(=O)c2ccc3c(=O)n4c(nc3c2)CCCCC4)cc1,active: 10 µM,
O=C(CCCC(=O)NN=Cc1ccc(Cl)cc1Cl)NN=Cc1ccc(Cl)cc1Cl,"inconclusive [inhibitor, partial curve]",
CCOc1ccccc1N=CC1=C(O)CC(c2ccccc2)CC1=O (stereo not drawn),,inactive: 0.729%
Cc1nc2ccccn2c1C(=O)NNS(=O)(=O)c1ccc(C(C)(C)C)cc1,"inconclusive [inhibitor, partial curve, poor fit]",
Cc1ccc(F)cc1NC(=O)N1CCN(c2ccnc3cc(Cl)ccc23)CC1,active: 3.55 µM,
COc1ccccc1N(C)S(=O)(=O)c1ccc(C(=O)Nc2nc(C)cs2)cc1,"inconclusive [inhibitor, partial curve, poor fit]",
CCCCCOc1ccc(CSc2ncn[nH]2)cc1,"inconclusive [inhibitor, single point]",
Cc1nnc(N/N=C/c2ccc(-c3ccccc3F)o2)n1N,,inactive: 3.69%
C=CCn1c(C)cc(C(=O)CSc2nnc(NC(C)C)s2)c1C,,inactive: -17.7%
N#CNC(=Nc1cccc(F)c1)SCc1ccccc1F,"inconclusive [inhibitor, single point]",
CCOC(=O)C1CCCCN1Cc1ccc(C(F)(F)F)cc1 (stereo not drawn),"inconclusive [inhibitor, single point]",
CSCCC(NC(=O)c1ccco1)C(=O)NC1CCCCCC1 (stereo not drawn),,inactive: -4.34% [at 8.37 µM]
Cc1oc(-c2ccc(Cl)cc2)cc1C(=O)NC1CCN(Cc2ccccc2)CC1,"inconclusive [inhibitor, single point]",
O=C(CCSc1ccc(F)cc1)NNC(=O)c1ccc([N+](=O)[O-])cc1,,inactive: -7.24%
CC(C)(C)OC(=O)NCc1ccc(CNC(=O)c2[nH]cnc2C(=O)NC2CCN(C(=O)OC(C)(C)C)CC2)cc1,"inconclusive [inhibitor, partial curve]",
N#CCCn1cc(/C=N/N=C2\NC(=O)C(CC(=O)O)S2)c(-c2ccc(F)cc2)n1 (stereo not drawn),,inactive: 0.938%
CCCCN1C(=N)N([C@@H](C)CN2CCC[C@H]2CN2C(N)=NC[C@H]2CC(C)C)C[C@H]1Cc1ccccc1,"inconclusive [inhibitor, single point]",
CCOC(=O)c1cccc(NC(=O)C2CCCN(S(=O)(=O)c3c(C)nn(C)c3C)C2)c1 (stereo not drawn),"inconclusive [inhibitor, single point]",
CCOc1ccc(OCC)c(NC(=O)C2CCCN(S(=O)(=O)c3c(C)n[nH]c3C)C2)c1 (stereo not drawn),"inconclusive [inhibitor, single point]",
